The text below walks through data of the RNAGym collection of RNA variant scans (doi:10.1073/pnas.2313332121).

First the molecules themselves.
B1: TPR 5TU (parent)
chain: GGAUCUUCUCGAUCUAACAAAAAAGACAAAUCUGCCACAAAGCUUGAGAGCAUCUUCGGAUGCAGAGGCGGCAGCCUUCGGUGGCGCGAUAGCGCCAACGUUCUCAACUAUGACACGCAAAACGCGUGCUCCGUUGAAUGGAGUUUAUCAUG

Variants at the floor of the assay are shown more often than the library holds them.

The variants in the data set derive from B1. The experiment in a line: polymerase ribozyme fitness, log enrichment relative to wild type (log ratio); higher = more active; in vitro selection for triplet polymerase activity. The procedure, abridged: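 Libraries of mutants in each subunit of a heterodimeric triplet polymerase ribozyme were generated by PCR and transcribed. In triplicate, each went through one in vitro selection round: annealing with biotinylated primer, partner subunit and triplets; frozen incubation at −7 °C; gel excision of extended constructs; streptavidin-bead capture; RT-PCR. Fitness, taken from Illumina sequencing of input and output libraries, is the logarithm of a genotype's enrichment over wild-type enrichment, averaged across replicates with inverse-variance weights. The logarithm is base 2, and genotypes needed ≥10 input reads and ≥1 read per output to be kept.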
Regarding A26U G58C U102G A107U A115G, the “polymerase ribozyme fitness (log ratio)” value is ≤ -4.2.

C27A G88A C96A A97G G128U U135G U145A: the “polymerase ribozyme fitness (log ratio)” value was ≤ -4.2. In the case of A26U C85U, the “polymerase ribozyme fitness (log ratio)” value is -1.63. Regarding C27A U45A C87U A138C, the “polymerase ribozyme fitness (log ratio)” value is ≤ -4.2. As for A26U U31C C63A G83C G94A C95U A98U, the “polymerase ribozyme fitness (log ratio)” value was ≤ -4.2. As for C27A C93U C116U G126A A147G, the “polymerase ribozyme fitness (log ratio)” value is ≤ -4.2.

For the variant A26U U33G U45A G50A U77G C85U A120C U127C U134G, the “polymerase ribozyme fitness (log ratio)” value was ≤ -4.2. Turning to A26U C69A C85A C149U, the “polymerase ribozyme fitness (log ratio)” value is ≤ -4.2. For C27A G50U C57U A60C C116G U146G A147C the value was ≤ -4.2; for C27A C36G U56G C57U G83A, ≤ -4.2; for C27A G59A C79G A110C U144C, ≤ -4.2.

As to C27G A52C U53G C57G C85A G86C, the “polymerase ribozyme fitness (log ratio)” value is ≤ -4.2.

For the variant A26U U33A A47G G62A G94U C105U A110U, the “polymerase ribozyme fitness (log ratio)” value was ≤ -4.2.

Take A26U G83U C95G C105A G141A U146C U151C: the “polymerase ribozyme fitness (log ratio)” value is ≤ -4.2. For the variant C27G A28U A39U U55A G83C, the “polymerase ribozyme fitness (log ratio)” value was ≤ -4.2. Then A26U C79A G83U, with ≤ -4.2; and C27A C38U G81A G86U A110U, with ≤ -4.2.

On to A26U C43U G80C G84U C93G U148A, for which the “polymerase ribozyme fitness (log ratio)” value was ≤ -4.2. A26U G42A G48U C85G C87A U102A: the “polymerase ribozyme fitness (log ratio)” value is ≤ -4.2. Turning to A26U U55A G143U U144G, the “polymerase ribozyme fitness (log ratio)” value is ≤ -4.2. For A26U C72G G83C the value was ≤ -4.2; for C27G A28U U53A A66C C105U A106C, ≤ -4.2; for C27A A28U A49U A66C G92A G124A, ≤ -4.2. A26U U53G C87G G140A: the “polymerase ribozyme fitness (log ratio)” value is ≤ -4.2. On to A26U C75U U148G, for which the “polymerase ribozyme fitness (log ratio)” value was ≤ -4.2.

For the variant C27A U78C C96U A142G U145C, the “polymerase ribozyme fitness (log ratio)” value is ≤ -4.2. For C27G C32G C51G U56A C76A A121C, the “polymerase ribozyme fitness (log ratio)” value was ≤ -4.2. For C27G A49G G81A G92C the value was ≤ -4.2; for C27A G34U U53A G71C G88U C96U U144A U146A, ≤ -4.2; for A26U G48C A49U A64C U90G A137G, -4.11. Regarding C27A C54U A91C G94C, the “polymerase ribozyme fitness (log ratio)” value was ≤ -4.2. For A26U U61A C87G U101C C116U A122U the value was ≤ -4.2; for A26U C87G, ≤ -4.2. Turning to A26U G67A G83A A89U A106G, the “polymerase ribozyme fitness (log ratio)” value was ≤ -4.2. In the case of C27A G42C C63G C75U U77C A89C C95U A106C G126A U148A, the “polymerase ribozyme fitness (log ratio)” value is ≤ -4.2. Consider A26U U61A G71C C79U A98G U151A, for which the “polymerase ribozyme fitness (log ratio)” value is ≤ -4.2. For the variant C27A A41G C72A A91G C95U C103A, the “polymerase ribozyme fitness (log ratio)” value is ≤ -4.2. As for C27A G50A C54U C95A, the “polymerase ribozyme fitness (log ratio)” value was ≤ -4.2. Regarding A26U C57U G92A A120G U146C, the “polymerase ribozyme fitness (log ratio)” value was ≤ -4.2. As for C27A A52G G59C C76U G86A A91G C116A C125A, the “polymerase ribozyme fitness (log ratio)” value is ≤ -4.2. For A26U C51U C114U C129U the value was ≤ -4.2; for C27A G42C U53A G58C A66G C95G G124C, ≤ -4.2.

Turning to A26U U78C G94A C95A A98G A138G, the “polymerase ribozyme fitness (log ratio)” value was ≤ -4.2. Then C27G C38U A49C G65C C87G C114A A119G U145A, with -4.07; and C27A C36U C87G G126C C149U, with ≤ -4.2; and C27G C38A G83C U104G C105U, with ≤ -4.2.

With C27G A30U A52G G59C, the “polymerase ribozyme fitness (log ratio)” value is ≤ -4.2. As for C27A U90G A107U, the “polymerase ribozyme fitness (log ratio)” value was ≤ -4.2. Turning to C27A A91G, the “polymerase ribozyme fitness (log ratio)” value was ≤ -4.2.

Regarding C27A U44A U55G A98U A121C, the “polymerase ribozyme fitness (log ratio)” value is ≤ -4.2. For the variant A26U C57A G83C C114U U144A, the “polymerase ribozyme fitness (log ratio)” value was ≤ -4.2.

Consider A26U G80A A89G G117U, for which the “polymerase ribozyme fitness (log ratio)” value is ≤ -4.2. A26U G50U C75U C87A A91G A106U A107C A110C A150U: the “polymerase ribozyme fitness (log ratio)” value is ≤ -4.2.

For C27A C54A C95U, the “polymerase ribozyme fitness (log ratio)” value is ≤ -4.2.

C27A C54G G67U G84C: the “polymerase ribozyme fitness (log ratio)” value is ≤ -4.2. With A26U G92A, the “polymerase ribozyme fitness (log ratio)” value was -3.86. For A26U C51U G80A, the “polymerase ribozyme fitness (log ratio)” value was ≤ -4.2.

With C27G A29U A30G G50C A52C C54A G71A C93A G128C, the “polymerase ribozyme fitness (log ratio)” value was ≤ -4.2. Take A26U U53A G124C A137C A138U: the “polymerase ribozyme fitness (log ratio)” value is ≤ -4.2. For C27A C54A C96G G117A U130C, the “polymerase ribozyme fitness (log ratio)” value was ≤ -4.2. On to A26U U78G C85U U148A, for which the “polymerase ribozyme fitness (log ratio)” value is ≤ -4.2. For the variant A26U C43A A49G G58C C93U G112A, the “polymerase ribozyme fitness (log ratio)” value was ≤ -4.2.

Take C27A U33G A39G A60C C93U U127C G140A: the “polymerase ribozyme fitness (log ratio)” value is -4.14. Take A26U G84C U145G: the “polymerase ribozyme fitness (log ratio)” value was ≤ -4.2. Then C27G C35G A64U A73G C79A C85G A91U, with ≤ -4.2; and C27A G59C G84A, with ≤ -4.2. For C27A A28U C36U G67C A91G A115U A150G, the “polymerase ribozyme fitness (log ratio)” value is ≤ -4.2.

A26U G74A G84A U109C C125G G141C: the “polymerase ribozyme fitness (log ratio)” value was ≤ -4.2. For A26U G48C A107C A119C, the “polymerase ribozyme fitness (log ratio)” value is ≤ -4.2. Turning to C27A A49C C54G C87U C116G U134A, the “polymerase ribozyme fitness (log ratio)” value is ≤ -4.2. Take C27A C32U G46A G86U C105A: the “polymerase ribozyme fitness (log ratio)” value was ≤ -4.2. As for A26U C93U C118U C125A, the “polymerase ribozyme fitness (log ratio)” value is ≤ -4.2. Take C27A C32G C38U A66C A91U C99G: the “polymerase ribozyme fitness (log ratio)” value was ≤ -4.2. With C27A G84U C129G A150C, the “polymerase ribozyme fitness (log ratio)” value is ≤ -4.2. A26U U55G G86C C96U A97C C99A U102G: the “polymerase ribozyme fitness (log ratio)” value is ≤ -4.2. With C27G A37U C54G A64U C76G A106G, the “polymerase ribozyme fitness (log ratio)” value is ≤ -4.2.

Consider C27A A142C, for which the “polymerase ribozyme fitness (log ratio)” value was ≤ -4.2.

As to A26U C96U C116G, the “polymerase ribozyme fitness (log ratio)” value is -1.18. Turning to A26U C85U C105U, the “polymerase ribozyme fitness (log ratio)” value is -1.82.

Consider C27G A40U C54G C85A C114A A147G, for which the “polymerase ribozyme fitness (log ratio)” value is ≤ -4.2. Turning to C27A G71U A97G, the “polymerase ribozyme fitness (log ratio)” value was ≤ -4.2.

As to A26U C51U A64U C125U, the “polymerase ribozyme fitness (log ratio)” value is ≤ -4.2. With C27G A40G C87A C114U, the “polymerase ribozyme fitness (log ratio)” value is ≤ -4.2.
